# According to PubChem BioAssay AID488969 (Vanderbilt High Throughput Screening Facility, 2010):
# The full ranking holds about 110,000 compounds; the median of “z-score” is about -0.1, and the highest 2% start at about 2. This is one part of the list.
# Target: Metabotropic glutamate receptor 8 (Rattus norvegicus) (UniProt P70579)
# Assay: mGluR8 Gi/Go-coupled signaling modulation – cell-based, rat, thallium flux, HTS, primary screen (AID 488969)
# Details: HEK293 rat mGluR8, GIRK (G protein-gated inwardly rectifying potassium channel) thallium flux, FluoZin2; at 10 µM; stronger effect = higher value; submaximal glutamate (EC20) added with thallium
# Sequence of UniProt P70579 (P70579 whole entry, looked up): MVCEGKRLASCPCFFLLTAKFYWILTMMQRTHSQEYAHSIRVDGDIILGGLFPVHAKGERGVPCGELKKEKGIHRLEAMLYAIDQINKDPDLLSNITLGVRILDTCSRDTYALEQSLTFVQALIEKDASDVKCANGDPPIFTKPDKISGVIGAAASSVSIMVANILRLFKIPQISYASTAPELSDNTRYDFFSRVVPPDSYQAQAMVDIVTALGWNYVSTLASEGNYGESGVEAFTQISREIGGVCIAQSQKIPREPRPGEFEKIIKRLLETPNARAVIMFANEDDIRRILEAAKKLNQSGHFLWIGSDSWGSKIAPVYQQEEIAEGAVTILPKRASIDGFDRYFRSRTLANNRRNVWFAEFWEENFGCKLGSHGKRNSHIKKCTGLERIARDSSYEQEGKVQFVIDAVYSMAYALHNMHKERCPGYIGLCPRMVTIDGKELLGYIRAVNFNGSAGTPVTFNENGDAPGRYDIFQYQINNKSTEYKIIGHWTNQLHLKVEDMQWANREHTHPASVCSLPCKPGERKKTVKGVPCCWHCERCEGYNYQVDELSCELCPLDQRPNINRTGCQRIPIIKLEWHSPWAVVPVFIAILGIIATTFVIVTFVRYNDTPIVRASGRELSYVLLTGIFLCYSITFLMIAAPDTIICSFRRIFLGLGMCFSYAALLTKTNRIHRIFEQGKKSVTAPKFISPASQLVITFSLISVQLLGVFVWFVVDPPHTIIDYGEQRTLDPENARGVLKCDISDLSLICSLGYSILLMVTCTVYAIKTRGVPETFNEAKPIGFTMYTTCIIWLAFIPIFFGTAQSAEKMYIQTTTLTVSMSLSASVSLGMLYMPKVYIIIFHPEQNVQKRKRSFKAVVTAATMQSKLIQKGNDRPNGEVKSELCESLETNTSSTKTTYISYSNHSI
row,Compound,z-score
1,Cc1ccc(O)c(CP(=O)(c2ccccc2)c2ccccc2)c1,-0.324
2,Cc1cc(C)nc(NS(=O)(=O)c2ccc(N=Cc3c(C)[nH]n(-c4ccccc4)c3=O)cc2)n1,-0.205
3,CN(C)S(=O)(=O)N1CCC(c2ccc(F)cc2)C(COc2ccc3c(c2)OCO3)C1 (stereo not drawn),0.15
4,CC1=C(C(=O)N2CCOCC2)C(c2ccsc2)C2=C(CCCC2=O)N1 (stereo not drawn),0.844
5,COc1ccccc1NC(=O)Cc1nn(C)c(=O)c2ccccc12,-0.677
6,Cn1c2ccccc2c2c(C(=O)N3CCN(c4ccc(F)cc4)CC3)cn(C3CCCC3)c(=O)c21,-0.225
7,COC(=O)c1cccc(S(=O)(=O)N2CCCC2)c1,-0.113
8,COc1ccc(/C(O)=C2/C(=O)C(=O)N(CCN(C)C)C2c2ccccc2)cc1Cl (stereo not drawn),-0.968
9,Cc1cc(C)n(CC(=O)N2c3ccccc3Sc3ccccc32)n1,-0.397
10,C=CCNC(=S)N/N=C/c1ccc(OCc2ccccc2Cl)cc1,-0.2
11,CSc1ccc(CN(C)CC(=O)Nc2ccc(C)cc2Br)cc1,-0.173
12,O=C(C1CCN(Cc2ccc(F)cc2)CC1)N(CCc1ccccc1)Cc1ccccc1,0.621
13,Cn1c(=O)n(C)c2cc([N+](=O)[O-])c(N3CCN(S(=O)(=O)c4ccc(C(C)(C)C)cc4)CC3)cc21,1.56
14,CN=CC1=C(O)c2ccccc2C1=O,-0.357
15,CC(C)(C)c1nnc(NC(=O)Cc2ccccc2[N+](=O)[O-])s1,-0.224
16,Cc1nc2ccc(NC(=O)NCCCO)cc2s1,0.21
17,CCOc1ccc(C(=O)/C=C/c2ccc(SC)cc2)cc1,-0.132
18,CCC(C)Oc1cccc(OCCCCN2C(=O)NC(C)(C)C2=O)c1 (stereo not drawn),0.0393
19,CCOC(=O)c1ccc2ncc(C(=O)OCC)c(NCCN(C)C)c2c1,-0.571
20,CCOc1ccc(NC(=O)NCCCn2c(C)nc3cc(C)c(C)cc32)cc1,-0.139
21,COc1ccc(C(C(=O)NC2CCCC2)N(CCN2CCOCC2)C(=O)c2ccc(OC)c(OC)c2)cc1 (stereo not drawn),0.141
22,COC(=O)c1cc(S(=O)(=O)N2CCOCC2)c(Cl)cc1N1CCOCC1,0.00512
23,COc1ccc(O/C(=N\S(=O)(=O)c2ccccc2)c2ccccc2)cc1,-0.216

row,Compound,z-score
1,N/C(=N\OC(=O)CCc1ccccc1)c1ccc(Br)cc1,0.12
2,CC(C)(C)c1ccc(OCCNC(=O)c2ncn[nH]2)cc1,-0.379
3,COc1ccc(C)c(S(=O)(=O)Nc2ccc(OCC(=O)O)cc2)c1,0.2
4,COc1ccc([N+](=O)[O-])cc1NC(=O)c1ccc(N(Cc2ccccc2C)S(C)(=O)=O)cc1,-0.0462
5,CCOC(=O)N1CCN(Cc2nc(-c3ccc(Cl)cc3)no2)CC1,-0.222
6,CCc1ccc2c(c1)cc(CN(C(=S)Nc1ccccc1)C1CC1)c1nnnn12,-0.065
7,CCCOc1ccc(C(=O)CCNc2ccc(C)c(Cl)c2)cc1,0.145
8,CCc1nc(SCC(=O)c2ccc(Cl)s2)c2oc3ccccc3c2n1,-0.385
9,COc1cc(/C=N/NC(=O)CNC(=O)c2ccccc2)ccc1OC(=O)c1cccs1,-0.346
10,CCCCC12CN3CCN(CC(C3)/C1=N\NC(=O)c1ccccc1N)C2,-0.264
11,Cc1ccccc1N1C(=O)N(c2cccc(C(F)(F)F)c2)C2CS(=O)(=O)CC21 (stereo not drawn),-0.217
12,COc1cccc(C2C(C(=O)c3cccs3)=C(O)C(=O)N2CCN(C)C)c1OC (stereo not drawn),-0.283
13,COc1cc(C2C3C(C)N(C)C(=O)N(C)C3N(C)C(=O)N2C)ccc1O (stereo not drawn),0.84
14,CCCCN(C)Cc1c(O)ccc2c(-c3ccccc3)cc(=O)oc12,-0.434
15,O=C1Nc2ccc(Br)cc2C1(O)Cc1ccncc1 (stereo not drawn),-0.201
16,CCc1nnc(NC(=O)CCc2ccc(C)o2)s1,0.332
17,Cc1cccc(/N=C/c2c(O)[nH]c3ccccc23)n1,-0.0825
18,CCCC(=O)NC(=S)Nc1sc2c(c1C(N)=O)CCC2,-0.327
19,COc1ccc(N=NC2=C(O)CC(C)(C)CC2=O)cc1,-0.0779
20,Cc1cccc(Nc2nc(NCCCN3CCOCC3)nc(N)c2[N+](=O)[O-])c1,-0.234
21,COc1ccc(Nc2nc(=O)[nH]nc2C)cc1,0.11
22,O=S(=O)(/C=C/c1ccccc1)N1CCN(c2ccc(F)cc2)CC1,-0.241
23,COc1cc(NC(=O)CN2C(=O)NC(C)(c3ccccc3)C2=O)c(C)cc1[N+](=O)[O-] (stereo not drawn),1.12

row,Compound,z-score
1,CCOC(=O)c1c(NC(C)=O)sc2c(O)c(Br)cc(Br)c12,-0.567
2,O=C1CC(c2ccccc2)CN1Cc1ccccc1 (stereo not drawn),0.791
3,CCN(CC)c1ccc(NC(=O)CSc2nc3ccccc3c(=O)[nH]2)cc1,-0.106
4,CCC1c2ccc(C)n2CCN1C(=O)Nc1ccccc1OC (stereo not drawn),-1.35
5,COc1cc2c(cc1O)CCN(C(=O)c1ccco1)C2C (stereo not drawn),0.122
6,Cc1c(NC(=O)c2ccc(N3CCCC3)c([N+](=O)[O-])c2)cccc1-c1nc2ccccc2s1,-0.013
7,CCOc1cc(NC(=O)c2ccccc2[N+](=O)[O-])c(OCC)cc1NC(=O)CC(C)C,-0.494
8,COc1cc(NS(=O)(=O)c2ccc(NC(=O)COc3ccccc3Cl)cc2)nc(OC)n1,0.192
9,CC1=NC(=O)C(N=Nc2cccc3ccccc23)N1c1ccccc1 (stereo not drawn),0.878
10,Cc1c(N=Cc2c(O)n(C3CCCCC3)c(=O)[nH]c2=O)c(=O)n(-c2ccccc2)n1C,-0.658
11,O=C(CCl)NC(=O)NC12CC3CC(CC(C3)C1)C2,-0.184
12,CCC1Nc2ccccc2-c2nnc(SC)nc2O1 (stereo not drawn),-0.245
13,CCCN(CC(=O)c1cc(C)n(C)c1C)S(=O)(=O)c1cccc(C(F)(F)F)c1,-0.232
14,CCOC(=O)C1CCN(Cc2cnc(Oc3ccc(OC)cc3)s2)CC1,-0.0583
15,CCn1c(C)nc2cc(S(=O)(=O)C(F)F)ccc21,-0.152
16,COc1ccc(C(C(=O)NC2CCCC2)N(Cc2ccc(F)cc2)C(=O)c2ccn[nH]2)cc1OC (stereo not drawn),0.0155
17,COC(=O)N/N=C(\C)c1ccccc1Br,-0.0179
18,Cc1cccc(C)c1NC(=S)NC(C)CCc1ccccc1 (stereo not drawn),0.107
19,Cc1ccc(-c2cc(C(=O)O)n[nH]2)o1,-0.0668
20,CCOC(=O)/C(=C\c1ccc([N+](=O)[O-])o1)NC(=O)c1ccccc1,-0.483
21,Cc1cc(NS(=O)(=O)c2ccc(NC(=O)CSc3nnc(-c4ccco4)n3C)cc2)nc(C)n1,0.225
22,Cc1ccc(CS(=O)(=O)CCC(=O)NCCN(C)Cc2ccccc2)cc1,-0.171
